From PubChem BioAssay AID2676 (National Center for Advancing Translational Sciences (NCATS), 2010)
Out of some 370,000 compounds screened, about 1,100 (0.3%) were called active. The shares of active, inactive and inconclusive entries below differ from those in the screen. Calls come from the whole dose curve; as a rule, active = well fitted activation curve with a large enough effect; inconclusive = small, poorly fitted or top-dose-only effect; inactive = flat fitted curve, though single readings scatter. Potencies beside an inconclusive call are fits to weak or partial responses and may not hold up.

Target: Relaxin receptor 1 (Homo sapiens) (UniProt Q9HBX9)
Sequence of UniProt Q9HBX9 (Q9HBX9 whole entry, looked up): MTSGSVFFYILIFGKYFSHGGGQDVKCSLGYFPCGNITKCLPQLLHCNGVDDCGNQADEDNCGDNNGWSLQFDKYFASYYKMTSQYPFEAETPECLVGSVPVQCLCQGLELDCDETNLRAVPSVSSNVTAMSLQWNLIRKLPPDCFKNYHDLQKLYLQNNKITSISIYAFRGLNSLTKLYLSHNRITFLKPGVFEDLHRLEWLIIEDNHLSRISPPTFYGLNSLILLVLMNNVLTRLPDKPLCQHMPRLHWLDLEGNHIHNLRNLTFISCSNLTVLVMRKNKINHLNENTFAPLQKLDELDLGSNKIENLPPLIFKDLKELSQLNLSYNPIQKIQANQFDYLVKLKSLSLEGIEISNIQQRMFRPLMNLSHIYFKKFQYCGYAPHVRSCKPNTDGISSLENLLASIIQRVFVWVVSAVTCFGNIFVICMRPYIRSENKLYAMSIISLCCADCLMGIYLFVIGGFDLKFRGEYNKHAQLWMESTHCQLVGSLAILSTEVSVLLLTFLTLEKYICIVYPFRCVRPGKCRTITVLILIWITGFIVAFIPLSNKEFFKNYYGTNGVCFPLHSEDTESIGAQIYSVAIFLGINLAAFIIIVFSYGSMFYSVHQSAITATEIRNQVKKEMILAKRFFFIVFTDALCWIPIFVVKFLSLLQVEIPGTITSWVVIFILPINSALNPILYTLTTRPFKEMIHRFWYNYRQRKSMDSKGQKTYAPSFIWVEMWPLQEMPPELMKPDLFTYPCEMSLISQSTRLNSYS
Test: qHTS Assay for Agonists of the Relaxin Receptor RXFP1; note: nearly all actives have a fitted effect of over 60% in size
Conditions: HEK293T-RXFP1 cAMP TR-FRET, 30 min; series mostly up to 57.5 µM; activation: at the top concentration
In short: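 HEK293T cells stably expressing RXFP1 were pretreated with the PDE4 inhibitor Ro 20174, exposed to compounds for 30 min at 37C, lysed, and cAMP was read by TR-FRET. Data normalized to buffer (basal) and 29 nM porcine relaxin (100%).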
% is set by controls: 0 for no effect and ±100 for the full control effect; potency is the fitted concentration of half-maximal effect; tags give direction and shape of the fitted curve.

Compound	Potency	activation
CCCCNc1nc2c(-c3cccc(Br)c3)nnn2c2ccccc12	inconclusive: 10 µM [activator, partial curve]	–
C=CCOc1cccc(C2C(C(=O)c3ccc(C)o3)=C(O)C(=O)N2c2nnc(C)s2)c1 (stereo not drawn)	inconclusive: 15.8 µM [activator, partial curve]	–
Cc1ccc(OC(F)F)c(NC(=O)Nc2cccc(C(F)(F)F)c2)c1	–	inactive: 0.195%
Cc1ccc(-n2c3c(cc(C(=O)NCC(=O)c4ccccc4)c2=O)C(=O)CCC3)cc1	inconclusive: 39.8 µM [activator, single point]	–
COc1ccccc1CNC(=O)CCCc1nnc2n(C)c(=O)c3sccc3n12	inconclusive: 12.6 µM [activator, partial curve]	–
CN(C)c1ccc(CNC(=O)C2CCN(C(=O)c3ccc(-n4ccc5ccccc54)s3)CC2)cc1	inconclusive: 15.8 µM [activator, partial curve]	–
Cc1ccc(C(=O)c2cn(CC(=O)Nc3ccc4c(c3)OCCO4)c3nc(C)ccc3c2=O)cc1	inconclusive: 31.6 µM [activator, single point]	–
Cc1ccc(NC(=O)c2cc(-c3ccc4c(c3)OCO4)on2)cc1C	inconclusive: 35.5 µM [activator, single point]	–
Cc1ccccc1OCC(=O)Nc1sc(C(=O)Nc2cccc(C)c2C)c(C)c1C#N	active: 8.91 µM	–
Cc1ccc(/C=C2/SC(=S)N(c3ccc(S(=O)(=O)Nc4nccs4)cc3)C2=O)cc1	–	inactive: 22.5%
COc1ccc(CN2C(=O)c3cccnc3C2=O)cc1S(=O)(=O)N(C)Cc1ccco1	inconclusive: 15.8 µM [activator, partial curve]	–
CC(NC(=O)c1ccc(N2Cc3ccccc3Oc3ncccc32)s1)c1ccccc1 (stereo not drawn)	inconclusive: 17.8 µM [activator, partial curve]	–
COCCCn1c(=S)[nH]c2sc3c(c2c1=O)CCCC3	inconclusive: 25.1 µM [activator, partial curve]	–
Cc1nc(Nc2cccc(C(F)(F)F)c2)nc2c1C(=O)CC(C)C2 (stereo not drawn)	inconclusive: 39.8 µM [activator, single point]	–
CSc1ncc(C(=O)NCc2cccc(Br)c2)c(-c2ccccc2)n1	inconclusive: 39.8 µM [activator, single point]	–
O=C1C2C3C=CC(CC3)C2C(=O)N1/N=C/c1c[nH]c2ccccc12 (stereo not drawn)	–	inactive: -0.202%
Cc1ccccc1C(=O)c1cccn1CC(=O)NCCCc1ccccc1	–	inactive: 0.626%
O=C(Nc1ccc(-c2ccc([N+](=O)[O-])cc2)cc1)c1ccccc1F	inconclusive: 39.8 µM [activator, single point]	–
